Laboratory results from publication PMC6703689.
Results are given in words; binding and its absence hold for the method and conditions named. In cells and extracts the contact can be indirect. Some results given as binding are weak or reduced against the parent protein; the word gives no strength. Tags and fused reporters may be left off the sequences shown.

Sequences of proteins named here, by UniProt entry; tags and fusion partners are left off.
UniProt Q7Z434: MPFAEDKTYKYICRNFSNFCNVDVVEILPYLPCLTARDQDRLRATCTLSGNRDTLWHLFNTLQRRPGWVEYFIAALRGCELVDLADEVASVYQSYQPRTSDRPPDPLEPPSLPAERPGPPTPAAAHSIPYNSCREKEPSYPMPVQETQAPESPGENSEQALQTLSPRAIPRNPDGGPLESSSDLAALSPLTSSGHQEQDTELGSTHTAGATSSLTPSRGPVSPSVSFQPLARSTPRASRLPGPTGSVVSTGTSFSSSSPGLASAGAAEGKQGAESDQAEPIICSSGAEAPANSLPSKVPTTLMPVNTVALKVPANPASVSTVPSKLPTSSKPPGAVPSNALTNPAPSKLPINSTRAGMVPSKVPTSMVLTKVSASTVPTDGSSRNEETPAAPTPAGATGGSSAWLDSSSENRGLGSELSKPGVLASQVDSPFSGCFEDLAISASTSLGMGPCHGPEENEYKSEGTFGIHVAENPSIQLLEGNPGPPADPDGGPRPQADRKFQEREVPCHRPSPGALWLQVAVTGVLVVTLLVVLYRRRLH
UniProt Q86WV6: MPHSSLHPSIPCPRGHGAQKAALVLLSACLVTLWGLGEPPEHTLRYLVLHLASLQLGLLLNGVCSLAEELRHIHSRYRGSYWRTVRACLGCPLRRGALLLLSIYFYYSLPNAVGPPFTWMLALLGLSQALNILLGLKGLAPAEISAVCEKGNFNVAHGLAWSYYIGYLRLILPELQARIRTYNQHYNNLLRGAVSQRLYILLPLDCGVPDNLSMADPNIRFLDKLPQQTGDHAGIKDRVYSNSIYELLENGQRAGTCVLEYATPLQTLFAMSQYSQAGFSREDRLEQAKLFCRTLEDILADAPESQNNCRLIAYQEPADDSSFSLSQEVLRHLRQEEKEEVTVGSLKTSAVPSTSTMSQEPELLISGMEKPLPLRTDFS

T1: IRF3 (UniProt Q14653)
T1 sequence: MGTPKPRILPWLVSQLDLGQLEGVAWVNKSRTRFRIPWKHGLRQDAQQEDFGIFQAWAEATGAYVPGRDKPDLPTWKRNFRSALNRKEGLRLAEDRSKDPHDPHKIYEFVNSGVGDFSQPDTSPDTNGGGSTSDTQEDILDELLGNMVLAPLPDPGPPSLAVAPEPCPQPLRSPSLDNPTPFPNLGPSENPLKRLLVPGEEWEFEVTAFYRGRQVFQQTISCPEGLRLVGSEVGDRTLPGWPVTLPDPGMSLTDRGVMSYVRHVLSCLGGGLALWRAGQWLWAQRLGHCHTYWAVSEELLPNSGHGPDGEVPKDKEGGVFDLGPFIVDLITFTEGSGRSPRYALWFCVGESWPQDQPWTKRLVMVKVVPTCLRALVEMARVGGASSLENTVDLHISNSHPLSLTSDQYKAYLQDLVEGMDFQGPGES

T2: retinoic acid-inducible gene-I (RIG-I), transfected (human) (UniProt O95786)
T2 sequence: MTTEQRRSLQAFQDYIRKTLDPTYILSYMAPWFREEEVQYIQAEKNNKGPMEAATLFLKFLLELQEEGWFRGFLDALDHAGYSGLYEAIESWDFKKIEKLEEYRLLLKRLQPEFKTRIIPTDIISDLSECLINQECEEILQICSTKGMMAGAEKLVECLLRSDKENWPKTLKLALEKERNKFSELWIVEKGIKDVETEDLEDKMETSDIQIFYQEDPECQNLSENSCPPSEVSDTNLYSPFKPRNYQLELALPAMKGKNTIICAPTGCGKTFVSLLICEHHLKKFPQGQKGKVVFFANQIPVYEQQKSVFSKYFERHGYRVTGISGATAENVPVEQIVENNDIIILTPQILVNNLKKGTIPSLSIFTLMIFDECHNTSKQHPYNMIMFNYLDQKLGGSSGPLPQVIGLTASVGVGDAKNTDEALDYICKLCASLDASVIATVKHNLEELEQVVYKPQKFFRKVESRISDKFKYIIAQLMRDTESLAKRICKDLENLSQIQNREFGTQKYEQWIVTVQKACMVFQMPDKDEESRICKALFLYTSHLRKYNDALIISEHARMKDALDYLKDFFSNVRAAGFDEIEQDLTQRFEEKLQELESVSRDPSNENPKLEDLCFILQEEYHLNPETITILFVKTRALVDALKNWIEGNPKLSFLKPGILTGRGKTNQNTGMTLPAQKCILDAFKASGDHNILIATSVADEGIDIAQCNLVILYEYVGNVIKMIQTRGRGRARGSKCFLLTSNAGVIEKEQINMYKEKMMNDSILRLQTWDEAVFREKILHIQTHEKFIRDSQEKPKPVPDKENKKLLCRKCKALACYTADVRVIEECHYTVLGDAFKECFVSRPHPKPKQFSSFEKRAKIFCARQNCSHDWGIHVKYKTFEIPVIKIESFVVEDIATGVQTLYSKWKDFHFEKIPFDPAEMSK

T3: MDA5, transfected (human) (UniProt Q9BYX4)
T3 sequence: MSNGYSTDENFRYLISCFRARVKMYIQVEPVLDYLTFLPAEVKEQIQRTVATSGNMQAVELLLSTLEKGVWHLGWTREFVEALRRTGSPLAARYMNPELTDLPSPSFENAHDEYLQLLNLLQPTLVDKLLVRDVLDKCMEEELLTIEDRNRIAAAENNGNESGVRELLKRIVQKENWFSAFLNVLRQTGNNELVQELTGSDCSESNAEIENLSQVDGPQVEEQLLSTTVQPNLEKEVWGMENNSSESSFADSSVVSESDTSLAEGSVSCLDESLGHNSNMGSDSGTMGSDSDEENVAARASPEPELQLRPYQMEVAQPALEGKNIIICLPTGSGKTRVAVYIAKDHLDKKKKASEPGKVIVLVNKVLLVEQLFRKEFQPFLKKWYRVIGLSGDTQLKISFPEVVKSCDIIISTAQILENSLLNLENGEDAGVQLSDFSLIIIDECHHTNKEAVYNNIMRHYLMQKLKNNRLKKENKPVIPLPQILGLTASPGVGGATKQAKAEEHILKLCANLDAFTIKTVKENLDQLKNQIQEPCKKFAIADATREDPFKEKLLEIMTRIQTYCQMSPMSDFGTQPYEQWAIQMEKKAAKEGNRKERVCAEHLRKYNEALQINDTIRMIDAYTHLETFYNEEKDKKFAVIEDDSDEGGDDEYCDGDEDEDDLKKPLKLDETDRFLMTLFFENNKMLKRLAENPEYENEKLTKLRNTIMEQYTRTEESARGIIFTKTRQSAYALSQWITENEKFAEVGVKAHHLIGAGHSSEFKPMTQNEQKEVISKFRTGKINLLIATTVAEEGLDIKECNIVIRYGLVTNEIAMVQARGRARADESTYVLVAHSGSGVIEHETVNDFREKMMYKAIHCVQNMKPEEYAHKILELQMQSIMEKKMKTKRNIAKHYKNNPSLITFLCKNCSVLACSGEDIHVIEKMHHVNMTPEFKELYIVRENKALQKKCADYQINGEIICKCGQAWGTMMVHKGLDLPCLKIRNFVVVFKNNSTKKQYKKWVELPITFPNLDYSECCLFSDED

T4: TBK1, Q9UHD2
T4 chain: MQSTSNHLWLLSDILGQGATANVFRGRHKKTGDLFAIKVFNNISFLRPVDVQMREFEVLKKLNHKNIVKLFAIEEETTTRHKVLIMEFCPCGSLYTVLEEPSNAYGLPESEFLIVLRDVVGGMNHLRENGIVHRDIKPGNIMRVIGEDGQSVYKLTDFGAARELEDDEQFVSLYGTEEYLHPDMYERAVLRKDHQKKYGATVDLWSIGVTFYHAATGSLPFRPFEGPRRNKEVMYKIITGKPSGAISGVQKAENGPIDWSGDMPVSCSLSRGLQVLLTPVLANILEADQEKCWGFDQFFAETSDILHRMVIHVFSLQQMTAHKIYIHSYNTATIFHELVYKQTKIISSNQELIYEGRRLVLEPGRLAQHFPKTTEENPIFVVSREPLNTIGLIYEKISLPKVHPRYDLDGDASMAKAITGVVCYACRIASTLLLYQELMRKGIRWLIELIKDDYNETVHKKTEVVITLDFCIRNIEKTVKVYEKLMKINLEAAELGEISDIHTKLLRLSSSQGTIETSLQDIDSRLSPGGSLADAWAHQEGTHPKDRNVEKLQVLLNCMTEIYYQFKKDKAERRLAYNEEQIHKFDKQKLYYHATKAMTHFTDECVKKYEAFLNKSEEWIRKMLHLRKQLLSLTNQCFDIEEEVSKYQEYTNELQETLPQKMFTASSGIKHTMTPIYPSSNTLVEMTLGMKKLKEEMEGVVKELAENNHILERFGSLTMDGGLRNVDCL


Experiments:
Assay in all cases: co-IP; HEK293 cells transiently transfected with the indicated plasmids; NP-40 lysis buffer (20 mM Tris-HCl pH 7.4, 150 mM NaCl, 1 mM EDTA, 1% NP-40); immunoprecipitation and immunoblotting
VISA = VISA (UniProt Q7Z434)
IRF3 = biological target: T1, IRF3
MITA = MITA (UniProt Q86WV6)
[1] = biological target: T2, retinoic acid-inducible gene-I (RIG-I), transfected (human)
[2] = biological target: T3, MDA5, transfected (human)
TBK1, Q9UHD2 = biological target: T4, TBK1, Q9UHD2; conditions: remark: other sources report otherwise

| binding (VISA) | binding (IRF3) | binding (MITA) | binding [1] | binding [2] | binding (TBK1, Q9UHD2) | Binder |
| --- | --- | --- | --- | --- | --- | --- |
| no binding | no binding | no binding | binds | binds |  | heterogeneous nuclear ribonucleoprotein M (hnRNPM), Flag- or HA-tagged, transfected (protein, UniProt P52272 1-730) MAAGVEAAAEVAATEIKMEEESGAPGVPSGNGAPGPKGEGERPAQNEKRKEKNIKRGGNRFEPYANPTKRYRAFITNIPFDVKWQSLKDLVKEKVGEVTYVELLMDAEGKSRGCAVVEFKMEESMKKAAEVLNKHSLSGRPLKVKEDPDGEHARRAMQKVMATTGGMGMGPGGPGMITIPPSILNNPNIPNEIIHALQAGRLGSTVFVANLDYKVGWKKLKEVFSMAGVVVRADILEDKDGKSRGIGTVTFEQSIEAVQAISMFNGQLLFDRPMHVKMDERALPKGDFFPPERPQQLPHGLGGIGMGLGPGGQPIDANHLNKGIGMGNIGPAGMGMEGIGFGINKMGGMEGPFGGGMENMGRFGSGMNMGRINEILSNALKRGEIIAKQGGGGGGGSVPGIERMGPGIDRLGGAGMERMGAGLGHGMDRVGSEIERMGLVMDRMGSVERMGSGIERMGPLGLDHMASSIERMGQTMERIGSGVERMGAGMGFGLERMAAPIDRVGQTIERMGSGVERMGPAIERMGLSMERMVPAGMGAGLERMGPVMDRMATGLERMGANNLERMGLERMGANSLERMGLERMGANSLERMGPAMGPALGAGIERMGLAMGGGGGASFDRAIEMERGNFGGSFAGSFGGAGGHAPGVARKACQIFVRNLPFDFTWKMLKDKFNECGHVLYADIKMENGKSKGCGVVKFESPEVAERACRMMNGMKLSGREIDVRIDRNA |
|  |  |  |  |  | no binding | heterogeneous nuclear ribonucleoprotein M (hnRNPM), Flag- or HA-tagged, transfected, P52272 1-730 (protein) MAAGVEAAAEVAATEIKMEEESGAPGVPSGNGAPGPKGEGERPAQNEKRKEKNIKRGGNRFEPYANPTKRYRAFITNIPFDVKWQSLKDLVKEKVGEVTYVELLMDAEGKSRGCAVVEFKMEESMKKAAEVLNKHSLSGRPLKVKEDPDGEHARRAMQKVMATTGGMGMGPGGPGMITIPPSILNNPNIPNEIIHALQAGRLGSTVFVANLDYKVGWKKLKEVFSMAGVVVRADILEDKDGKSRGIGTVTFEQSIEAVQAISMFNGQLLFDRPMHVKMDERALPKGDFFPPERPQQLPHGLGGIGMGLGPGGQPIDANHLNKGIGMGNIGPAGMGMEGIGFGINKMGGMEGPFGGGMENMGRFGSGMNMGRINEILSNALKRGEIIAKQGGGGGGGSVPGIERMGPGIDRLGGAGMERMGAGLGHGMDRVGSEIERMGLVMDRMGSVERMGSGIERMGPLGLDHMASSIERMGQTMERIGSGVERMGAGMGFGLERMAAPIDRVGQTIERMGSGVERMGPAIERMGLSMERMVPAGMGAGLERMGPVMDRMATGLERMGANNLERMGLERMGANSLERMGLERMGANSLERMGPAMGPALGAGIERMGLAMGGGGGASFDRAIEMERGNFGGSFAGSFGGAGGHAPGVARKACQIFVRNLPFDFTWKMLKDKFNECGHVLYADIKMENGKSKGCGVVKFESPEVAERACRMMNGMKLSGREIDVRIDRNA |
